# Measured values published in the RNAGym collection of RNA variant scans (doi:10.1093/nar/gkz1192).
# The source gives no read counts; variants with many changes may rest on few reads.
# B1: CPEB3 Ribozyme (parent)
# chain: UAACAGGGGGCCACAGCAGAAGCGUUCACGUCGCAGCCCCUGUCAGAUUCUGGUGAAUCUGCGAAUUCUGCUGUAUAUCUC
# Variants of: B1
# Experiment: self-cleavage, relative activity (ratio to wild type); higher = more cleavage; in vitro, sequencing
# How it was run: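 After error-prone PCR and barcoding, CPEB3 ribozyme mutant libraries were transcribed with T7 RNA polymerase at 37°C for 5 hours, then given 15 min with DNase I before an EDTA stop, and they cleaved during both steps. Reverse transcription with template switching preceded Illumina sequencing. Relative activity divides a variant's cleaved/total read fraction by the unmutated ribozyme's. At least 5 reads were required per variant, and three batches were averaged.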
row,Variant,self-cleavage
1,G10C G42U U66A U80C,0.18
2,G10C G42U U72C,0.14
3,G10C G53C A56U,0.12
4,G10C U25C U31C U72C,0.05
5,G10C U25C U43A U51A U60G U78C,0.06
6,G10C U25C U49C U58C,0.15
7,G10C U25C U60C A65G U69C,0.08
8,G10C U26A U31A G33A C34G A35C U41C,0.05
9,G10C U26A U58C A65G U78C,0.05
10,G10C U26C A47G A64C U69A,0.09
11,G10C U26C U51C,0.2
12,G10C U26C U60C,0.17
13,G10C U31A G52A U60C A65U,0.06
14,G10C U31C U54C U60C U66C U69C A77G,0.08
15,G10C U41A A64G,0.19
16,G10C U41A U58A,0.21
17,G10C U41C U58A,0.09
18,G10C U43C A45G C59U,0.17
19,G10C U43C U67A,0.07
20,G10C U48C A65G,0.14
21,G10C U49C U51C,0.11
22,G10C U51A A56U,0.07
23,G10C U51A C81A,0.25
24,G10C U51C A57U,0.14

row,Variant,self-cleavage
1,G10C U51C U80C,0.11
2,G10C U51G A64G,0.16
3,G10C U54A A56G,0.18
4,G10C U54A U78A,0.3
5,G10C U54G A57G U66C,0.08
6,G10C U67C U74C A75U,0.1
7,G10C U76C U80C,0.24
8,G10U A13G A15G A45C U54C A64G,0.27
9,G10U A13G A28G A35U U67C U72A,0.13
10,G10U A13G U41C A45C,0.28
11,G10U A13U A35G U43A,0.47
12,G10U A13U A56G U58A C81U,0.05
13,G10U A13U C40U A45U U48A U60A U80C,0.04
14,G10U A13U U25C U41A,0.17
15,G10U A15C U26C G30A U49C A56G,0.25
16,G10U A15G A21C U31C A45G A57G,0.03
17,G10U A15G C29U U69C,0.06
18,G10U A15G U41A U54A,0.04
19,G10U A15U U31G U54A,0.21
20,G10U A18C U31C U60A,0.12
21,G10U A18C U41C G63U,0.3
22,G10U A20U U25C U43A U49G,0.04
23,G10U A21G C38U U41A U43C U78C,0.02
24,G10U A21G U51A U66C,0.07

row,Variant,self-cleavage
1,G10U A28G C44U,0.32
2,G10U A28G U31A U80A,0.05
3,G10U A28U U51C,0.11
4,G10U A45U U60G C71A,0.11
5,G10U A47G A64G G70C,0.07
6,G10U A57G A64G,0.48
7,G10U A65G U78C,0.06
8,G10U C11A A13U U41C A64G,0.24
9,G10U C11U U48C,0.34
10,G10U C14U G19U A28G G42A U58C,0.11
11,G10U C17U C32A A57G U69C U76C,0.03
12,G10U C23G A28G C38U U51C U69C,0.07
13,G10U C23G G24C A57G G63A,0.1
14,G10U C34U A35G,0.37
15,G10U G19U G42A A45G,0.14
16,G10U G30A A35G G55C U58A C71U U80A,0.03
17,G10U U25A U26A G53A U67C,0.04
18,G10U U25C C68U U72A,0.08
19,G10U U25C C71G A75U,0.05
20,G10U U25C G30A A56G U66C,0.08
21,G10U U25C U31C U41A U48A U49C,0.05
22,G10U U25C U48C U67C,0.07
23,G10U U25C U74C,0.45
24,G10U U26C A28G U51C U76A,0.08

row,Variant,self-cleavage
1,G10U U26C U41C U72C,0.03
2,G10U U26C U49C,0.19
3,G10U U31A C59A A65G U66C,0.05
4,G10U U41C A56G G63A U72A,0.12
5,G10U U41C U54A U69A U76C U80C,0.05
6,G10U U41C U58C,0.4
7,G10U U41C U72G,0.13
8,G10U U43A A45C A47G U74C,0.15
9,G10U U48C U74C,0.08
10,G10U U51A G63A,0.14
11,G10U U51C U60C C68G,0.05
12,G10U U58C U66C,0.08
13,C11A A13G A15C U31C A35G A57G U78A,0.07
14,C11A A13G A15G A75U,0.7
15,C11A A13G A18G U48C U60C A64G,0.06
16,C11A A13G A20G A56U,0.1
17,C11A A13G A28G A56G U69C A75U,0.04
18,C11A A13G C44U,0.04
19,C11A A13G G19A A21G U25G U67C U78A,0.02
20,C11A A13G G24A G33A A47U A57G U80A,0.04
21,C11A A13G U66C U72C,0.31
22,C11A A13U A15U A18C C59A U80A,0.07
23,C11A A15G A20G A35G A45G C59A,0.05
24,C11A A15G A20U A45G,0.36

row,Variant,self-cleavage
1,C11A A15G A21G U60C,0.34
2,C11A A15G C23U U43G U67A U78C,0.03
3,C11A A15G G33A U41A U69C,0.08
4,C11A A15G G63U U72C,0.69
5,C11A A15G U31C U60C,0.05
6,C11A A15G U54C U80C,0.25
7,C11A A15U A20G A35U U66C A75G,0.08
8,C11A A15U A20G U54C,0.35
9,C11A A18C A56U A64U,0.08
10,C11A A18G A35U A47G U58A U72C,0.05
11,C11A A18G C27A A45U A57G U60C U78C,0.04
12,C11A A18G U25A U41G,0.25
13,C11A A18G U26C A45G U58A U72A,0.04
14,C11A A18U U25C G36A,0.05
15,C11A A18U U26A U51C A57U U72A,0.05
16,C11A A20G A35G A56U,0.08
17,C11A A20G A35U U78C,0.29
18,C11A A20G A75G,0.03
19,C11A A20G U26C G30C,0.04
20,C11A A20U U26C U41G G42U,0.05
21,C11A A21C U43C G53U A64U U67C U69A,0.03
22,C11A A21G A47G U76A,0.06
23,C11A A21G G55U A56G A65G U67C,0.04
24,C11A A21G U25C C40U A65G,0.05

row,Variant,self-cleavage
1,C11A A21G U43C U66C A77U U78A,0.06
2,C11A A21G U49A A56G,0.07
3,C11A A21G U69A,0.35
4,C11A A21G U69C,0.45
5,C11A A21G U74C,0.54
6,C11A A21U U51A U69G,0.05
7,C11A A28C U31A U60C U76C,0.04
8,C11A A28G G63A A64C A77U U78A,0.07
9,C11A A28G U31C,0.07
10,C11A A28G U43A A75U,0.12
11,C11A A28G U58C U78C,0.44
12,C11A A28G U60A U69A C79U,0.22
13,C11A A35C A47G U51C U58C C81U,0.12
14,C11A A35G A45U U54G A56G,0.22
15,C11A A35G U60C U74A A75G,0.08
16,C11A A35U U54C,0.05
17,C11A A45G U48C U60C,0.08
18,C11A A47G U48C A65U,0.04
19,C11A A56G U58C U72C,0.07
20,C11A A64G U72C,0.18
21,C11A C12A U26A U31A U51C,0.04
22,C11A C12U U31A U48C U51A C62U,0.14
23,C11A C14A U25A U41C A45G A47G,0.06
24,C11A C17G A45G U48C,0.06

row,Variant,self-cleavage
1,C11A C37A C39A A64G U78C,0.03
2,C11A C37G U43C U74C,0.33
3,C11A C38G U58C U69A U74G,0
4,C11A C40A A45U U76A U80A,0.03
5,C11A G24A U51A U54A,0.06
6,C11A G52C A57G U78C,0.14
7,C11A U25A U60C A65G U67C,0.05
8,C11A U25C G30A C32G G52A U72C,0.05
9,C11A U25C U26A C71G,0.06
10,C11A U26A A35G,0.61
11,C11A U26C A57G A64U U67C U69C U80C,0.04
12,C11A U26C C39A U60C U78C,0.16
13,C11A U26C U41G U49C A64G,0.05
14,C11A U31C A65G U72A U78C,0.04
15,C11A U41A A45G U54G,0.26
16,C11A U41A A45U U51A U60C,0.03
17,C11A U43C A47G A65G,0.04
18,C11A U48C A57G U72G A77U,0.24
19,C11A U49C A75G,0.05
20,C11A U49C A77G,0.11
21,C11A U51A A56G A75G,0.08
22,C11A U51G A56G,0.28
23,C11A U58C U72C U78C,0.07
